Source: article PMC6919601, “Identification of Plasmodium dipeptidyl aminopeptidase allosteric inhibitors by high throughput screening” (PLoS ONE, 2019)
About 230 (0.21%) of roughly 110,000 compounds showed an effect of 50% or more. This is one part of the list.

target: DPAP1 (Plasmodium falciparum, UniProt Q8IIJ9); test: primary screen, percent inhibition; read by cleavage of a fluorogenic dipeptide substrate; higher = more effect of the substance; set-up: species or system P. falciparum D10 trophozoite lysates; single well
Sequence (Q8IIJ9 whole entry, looked up): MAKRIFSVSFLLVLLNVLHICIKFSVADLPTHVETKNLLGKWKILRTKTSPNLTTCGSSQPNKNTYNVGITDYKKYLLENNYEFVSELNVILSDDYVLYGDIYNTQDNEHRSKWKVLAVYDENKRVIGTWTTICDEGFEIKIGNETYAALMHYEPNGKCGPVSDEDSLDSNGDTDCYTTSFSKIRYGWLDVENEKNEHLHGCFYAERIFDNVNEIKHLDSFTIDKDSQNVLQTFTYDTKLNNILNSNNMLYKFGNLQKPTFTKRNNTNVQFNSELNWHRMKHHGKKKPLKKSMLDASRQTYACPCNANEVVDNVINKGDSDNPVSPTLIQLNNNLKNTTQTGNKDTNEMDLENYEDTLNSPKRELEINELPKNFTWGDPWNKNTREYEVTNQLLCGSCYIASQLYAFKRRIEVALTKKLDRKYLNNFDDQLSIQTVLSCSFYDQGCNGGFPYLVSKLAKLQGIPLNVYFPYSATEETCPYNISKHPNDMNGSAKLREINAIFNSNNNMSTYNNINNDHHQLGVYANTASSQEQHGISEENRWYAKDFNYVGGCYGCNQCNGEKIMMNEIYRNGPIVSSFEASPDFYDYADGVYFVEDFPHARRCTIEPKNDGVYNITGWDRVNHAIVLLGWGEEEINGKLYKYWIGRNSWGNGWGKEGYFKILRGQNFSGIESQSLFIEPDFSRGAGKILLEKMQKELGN
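Further: 30 min substrate incubation versus DMSO and 10 µM JCP410 controls.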

Point of comparison: `Cc1nn(C)c2c1c(-c1ccccc1)cc(=O)n2Cc1ccc2nonc2c1`, “% Inhibition @ 10 uM” value 3.47%. Against it:
- Cc1cc(NS(=O)(=O)c2ccc(NC(=O)COc3ccc(Br)cc3)cc2)no1 — lower, -1.61%
- CCOc1ccc(S(=O)(=O)NCCC2=CCCCC2)c2cccnc12 — lower, 1.91%
- CCNC(=O)/C(=C\c1ccc2c(c1)OCO2)NC(=O)c1ccccc1OC — lower, -4.76%
- Cc1cc(/C=C2\NC(=O)NC2=O)c(C)n1-c1ccc(OCc2ccccc2F)cc1 — lower, 3.37%
- Cc1cccc(NC(=O)C2c3ccccc3C(=O)N(CC(C)C)C2c2cccs2)n1 (stereo not drawn) — lower, 1.97%
- CCOc1ccc(C(C)NC(=O)c2cnn3c(C(F)F)cc(-c4ccc(OC)cc4)nc23)cc1 (stereo not drawn) — lower, -6.79%
- COc1ccc(/C=C2\C(=N)N3N=C(S(=O)(=O)CC(C)C)SC3=NC2=O)cc1 — lower, -1.54%
- CCc1ccc2c(c1)Sc1ccccc1CC2N1CCN(CCO)CC1 (stereo not drawn) — lower, -6.02%
- C=CCn1c(CC)nc2c(cnn2-c2ccccc2)c1=O — lower, 1.88%
- O=CN1N=C(c2ccccc2)CC1c1ccccc1 (stereo not drawn) — lower, -4.08%
- O=c1c2nnn(Cc3ccc(F)cc3)c2ncn1Cc1ccc(F)cc1 — lower, -4.17%
- Cc1cccc(NC(=O)C2CCN(S(=O)(=O)c3c(C)noc3/C=C/c3cccs3)CC2)n1 — lower, 0.458%
- COc1ccc2nc(NC3=NC(=O)CC(c4ccccc4)N3)nc(C)c2c1 (stereo not drawn) — higher, 3.95%
- Cc1ccc(-c2onc(C)c2C)cc1S(=O)(=O)NCc1ccccn1 — lower, -5.09%
- CCOc1cc(C(=O)Nc2ccc3c(c2)C(=O)N(C)C3=O)cc(OCC)c1OCC — lower, -7.5%
- Cc1cccc2sc(NC(=O)C3CCC(C/N=c4/c(N5CCOCC5)c(O)c4=O)CC3)nc12 (stereo not drawn) — higher, 4.4%
- Cc1nn(CCCC(=O)NC(C)c2ccccc2)c(=O)c2cc3sccc3n12 (stereo not drawn) — lower, 3.4%
- Cc1cccc(C)c1C(=O)c1ccc(O)cc1O — lower, -6.41%
- Cc1cc(OCC(=O)Nc2ccc(S(=O)(=O)Nc3ncccn3)cc2)ccc1C(C)C — lower, 2.95%
- CCN1CCN(C(=O)CCn2nc(-c3ccc(Cl)cc3)ccc2=O)CC1 — higher, 4.81%
- COc1cccc(CN2CCN(Cc3cc(OC)c4c(c3)OCO4)CC2)c1 — lower, 2.97%
- CN1CCC(NCCN2CCOCC2)CC1 — lower, -1.81%
- CCn1cc(C(=O)NCCCOC)c2cc(OC)c(OC)cc2c1=O — lower, 0.505%
- O=C(NCCO)c1nnc(-c2ccc3c(c2)OCO3)o1 — lower, -1.97%
- Cc1oc(-c2ccc(C(=O)NCc3ccc(Cl)cc3)cc2)nc1CS(=O)c1ccccc1 (stereo not drawn) — lower, -7.28%
- CC(CC(=O)O)CC(=O)Nc1ccccn1 (stereo not drawn) — lower, -7.33%
- CCOC(=O)c1cc2c(=O)n3ccccc3nc2n(C(C)C)/c1=N\C(=O)COc1ccccc1 — higher, 4.37%
- CCOc1ccc(CCNc2nc3ccccc3n3nnnc23)cc1OCC — lower, -5.37%
- Cc1cc2ccccc2n1CCNC(=O)c1ccc(S(=O)(=O)N(C)C)cc1 — lower, -2.87%
- CC(C)c1cc(C(=O)NCCc2ccccc2)no1 — lower, -6.45%
- NCC1CCN(S(=O)(=O)c2ccc(-n3cnnn3)cc2)CC1 — lower, -6.56%
- CC1CCN(S(=O)(=O)c2ccc(Br)c(C(=O)O)c2)CC1 — higher, 5.56%
- Cn1c(=O)c2cn(-c3cccc4ccccc34)cc2n(C)c1=O — lower, -7.8%
- CCOc1ccc(N(CC(=O)Nc2ccc(Br)c(C)c2)S(C)(=O)=O)cc1 — lower, -3.87%
- CCc1nn(-c2ccccc2)c2c1C(c1ccccc1)C(C#N)=C(N)O2 (stereo not drawn) — lower, 0.121%
- Cc1cc(C(F)(F)F)n2nc(C)c(C#N)c2n1 — lower, -1.92%
- c1ccc2c(N3CCC4(CC3)OCCO4)nnc(Cc3ccncc3)c2c1 — lower, -1.43%
- Cn1cc(C(=O)NCCN2CCN(Cc3ccccc3)CC2)c2c3ccccc3n(C)c2c1=O — lower, 3.27%
- CCN(CC)c1ccc(NC(=O)CCc2ccccc2)cc1 — lower, -2.98%
- O=C(CSc1nnc(-c2ccccc2)n1Cc1ccccc1)NCc1ccco1 — lower, -8.85%
- COc1ccc(Br)cc1/C=C1/OC(c2ccccc2F)=NC1=O — lower, -1.33%
- CC(=O)C1=C(C)OC(N)=C(C#N)C1c1ccsc1 (stereo not drawn) — higher, 4.3%
- O=C(NCc1cccnc1)c1cc(-c2ccccc2Cl)on1 — higher, 3.54%
- CCCNC(=O)NC1CCN(c2nc3ccccc3s2)CC1 — lower, -1.11%
- CCc1ccc(C2C(C(=O)OC)=CNC=C2C(=O)OC)cc1 — lower, -0.357%
- CCOC(=O)C1=C(CNCCOc2ccc(OC)cc2)NC(=O)NC1c1ccc2c(c1)OCO2 (stereo not drawn) — lower, 2.57%
- Cn1c(=O)c2c(nc(SCC(=O)NC3CCCCC3)n2Cc2ccccc2F)n(C)c1=O — lower, 3.38%
- Cc1ccc(NS(=O)(=O)c2ccc(NC(=O)C(F)(F)F)cc2)c(C)c1 — higher, 4.11%
- CCOC(=O)c1c(C)c(-c2ccccc2)n(CC(=O)N2CCc3ccccc3C2)c1C — lower, 3.32%
- CCCCc1ccc(N2CC(C(=O)Nc3ccccc3Cl)CC2=O)cc1 (stereo not drawn) — lower, 0.777%
- O=C(CCC1CCCC1)N1CCC(c2nc(-c3ccc(S(=O)(=O)N4CCCC4)cc3)no2)CC1 — lower, 0.401%
- COc1cc(NC(=O)COc2cc(C)ccc2C(C)C)ccc1NC(=O)c1ccco1 — higher, 5.53%
- COc1cc(OC)cc(-c2nc3nc(C)c(CCC(=O)NCCCOC(C)C)c(C)n3n2)c1 — lower, -4.1%
- COc1cc(C(=O)Nc2ccc(N3CCN(C(=O)C(C)C)CC3)c(Cl)c2)cc(OC)c1OC — lower, 2.02%
- Cc1ccc(CN2C(=O)CCC2C(=O)NC2CC2)cc1 (stereo not drawn) — lower, 1.62%
- COc1ccc(NC2=NC(=O)/C(=C/c3ccc(N4CCOCC4)cc3C)S2)cc1 — higher, 3.61%
- COc1cc(C2c3c(-c4ccccc4O)n[nH]c3C(=O)N2CCCO)ccc1O (stereo not drawn) — lower, -4.95%
- CC(C)(C)c1ccc(Oc2nc3ccccn3c(=O)c2/C=C(\C#N)C(=O)N2CCOCC2)cc1 — lower, -1.86%
- CCCCOc1ccc(C2=NC(=O)/C(=C/c3cccc(OC)c3OC)O2)cc1 — lower, 2.1%
- O=C(Cc1cn(Cc2cccc(Cl)c2)c2ccccc12)N1CCCC1 — lower, 1.91%
- Cc1ccc(CNC(=O)CN(C)S(=O)(=O)c2cccc3nsnc23)cc1 — higher, 16.4%
- CC(=O)c1ccc(-c2nnc(-c3ccccc3)o2)cc1 — lower, -2.7%
- O=C(NCc1ccc2c(c1)OCO2)c1ccc(Cl)cc1 — lower, -1.32%
- CC(Oc1ccccc1)C(=O)NC1CCN(Cc2ccccc2)CC1 (stereo not drawn) — lower, 2.84%
- CCC(=O)Nc1nn2c(-c3ccc(OC)cc3)nnc2s1 — lower, 3.36%
- CC(C)(C)c1ccc(C(=O)NCc2nc(-c3ccccc3)no2)cc1 — higher, 3.74%
- COc1cc(C2C3=C(O)CCCC3=NC3=C2C(=O)CCC3)ccc1OCC(=O)O (stereo not drawn) — lower, -5.79%
- O=C(O)CCS(=O)(=O)c1cc(Cl)ccc1Cl — lower, -3.66%
- O=C(Nc1cccc(O)c1)c1cccc(S(=O)(=O)N2CCCCC2)c1 — lower, -1.74%
- Cc1cc(C(=O)NCCN2CCN(C)CC2)c2c(C)nn(-c3ccccc3Cl)c2n1 — lower, -4.97%
- O=C(O)C1CCN(S(=O)(=O)c2cccs2)CC1 — lower, -5.76%
- CCN1C(=O)/C(=C/c2ccc(O)c(OC)c2)S/C1=N/c1ccc(OC)cc1 — lower, -1.55%
- Cc1cc(C)c2nc3s/c(=C\c4ccc(N5CCOCC5)cc4)c(=O)n3c2c1 — lower, -0.436%
- Clc1ccc2oc(-c3ccccc3)c/c(=N\Cc3cccnc3)c2c1 — lower, 0.561%
- CCN1CCN(c2c(S(=O)(=O)c3ccc(C)cc3)cnc3ccc(C)cc23)CC1 — lower, -7.15%
- CCCCNC(=O)C(C)n1c2ccccc2c2cnnc(O)c21 (stereo not drawn) — lower, -0.281%
- Cc1ccc(Cn2ncc3c(O)ncnc32)cc1 — lower, -0.132%
- CCOc1ccc(C2c3c(oc4ccccc4c3=O)C(=O)N2c2nncs2)cc1 (stereo not drawn) — lower, -5%
- O=C(Nc1ccccc1F)C1CCN(S(=O)(=O)c2ccc(F)cc2)CC1 — lower, -2.45%
- COc1cc(C)c(Cl)c(C)c1S(=O)(=O)N1CCN(c2ccccc2)CC1 — lower, 1.1%
- CO/C(O)=C(C#N)/C=N/c1ccccn1 — higher, 4.61%
- COc1cccc(NC(=O)C(c2ccccc2)c2ccccc2)c1 — lower, 1.91%
- Cn1c2ccccc2c2cnn(CC(=O)N3CCC(C(N)=O)CC3)c(=O)c21 — lower, -3.67%
- O=C(O)CCCC1(C(=O)O)CCCC1 — lower, 1.29%
- c1ccc(-c2nc(NC3CCCCC3)cc(-n3cccn3)n2)cc1 — higher, 3.48%
- CNS(=O)(=O)c1cn(CC(=O)N2CCN(C)CC2)cc1S(=O)(=O)NC — lower, -8.28%
- CCc1nnc(NC(=O)CCn2cnnn2)s1 — lower, 1.76%
- COc1ccc(C2CC(=O)C3=C(C2)NC(=O)CC3c2ccc(C)cc2)cc1 (stereo not drawn) — lower, 2.54%
- Cc1ccc(C(O)C#CC(O)(c2ccccc2)c2ccccc2)o1 (stereo not drawn) — lower, 3.39%
- Cn1ncc2c(N3CCc4ccccc4C3)ncnc21 — higher, 5.08%
- Cc1nnc(NC(=O)c2cc(=O)c3ccc(C)c(C)c3o2)s1 — higher, 6.56%
- COc1ccc(C(=N)NOC(=O)COc2ccccc2)cc1OC — lower, -1.4%
- Cc1ccc(NC=C2C(=O)CC(c3ccccc3Cl)CC2=O)cc1 (stereo not drawn) — higher, 4.07%
- O=C(NCc1ccco1)/C(=C\c1cccs1)NC(=O)c1ccsc1 — lower, -0.736%
- COc1ccc(S(=O)(=O)Nc2ccc3c(c2)OCCO3)c(Cl)c1Cl — lower, 1.28%
- CN(C)S(=O)(=O)c1ccccc1[N+](=O)[O-] — lower, -4.01%
- COc1ccccc1CC(=O)c1ccc(O)cc1O — lower, 2.17%
- O=C(Cn1nc(Cc2ccncc2)c2ccccc2c1=O)NCCC1=CCCCC1 — lower, 2.04%
